From PubChem BioAssay AID1458 (National Center for Advancing Translational Sciences (NCATS), 2008)
About 5,900 (2.8%) of roughly 210,000 compounds were called active. The inconclusive results got no clear call from the source; some entries with a clear call stand among them for comparison. Calls follow the shape of the dose curve; as a rule, active = well fitted activation curve with a large enough effect; inconclusive = small, poorly fitted or top-dose-only effect; inactive = no such curve, though single readings can be large or run the other way. Potencies beside an inconclusive call are fits to weak or partial responses and may not hold up.

Experiment: qHTS Assay for Enhancers of SMN2 Splice Variant Expression; also: nearly all actives have a fitted effect of over 55% in size; as to activity change, positive = activation: % of control where 0% means no effect
Settings: HEK293 SMN2-luciferase splicing reporter, luminescence, 30-36 h; activity change, positive = activation: at 46.1 µM (top of the series)
Method in brief: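 HEK293 cells carry an SMN2 minigene-luciferase reporter in which exon 7 inclusion puts luciferase in frame. Cells were seeded at 2000 cells/well, attached for 10-12 hours, then exposed to compounds for 30-36 hours at 37C before ONE-Glo luminescence.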
Potency is read from the fitted curve at half-maximal effect; tags tell the direction and shape of the fitted curve.

Row | Structure (SMILES) | activity change, positive = activation | Potency
1 | O=C(CCCN1C(=O)S/C(=C\c2ccccc2)C1=O)NNC(=O)c1ccccc1O | inactive: -42.8% | –
2 | CCOC(=O)C1CCN(C(=O)/C=C/c2cccs2)CC1 | – | inconclusive: 35.5 µM [activator, single point]
3 | COc1ccc2occ(C(=O)c3ccccc3)c2c1 | – | inconclusive: 17.8 µM [activator, single point]
4 | CC(C)N1CC2(c3ccccc3)CN(C(C)C)CC(c3ccccc3)(C1)C2=O | – | inconclusive: 3.98 µM [activator, full curve, poor fit]
5 | Cc1cc2cc(C(c3nnnn3CC3CCCO3)N3CCCc4ccccc43)c(=O)[nH]c2cc1C (stereo not drawn) | – | inconclusive: 0.0224 µM [activator, full curve, poor fit]
6 | Cn1c(CO)cnc1SCc1ccc([N+](=O)[O-])cc1 | – | inconclusive: 3.55 µM [activator, partial curve]
7 | COc1ccc(-c2nc(C#N)c(NCC3CCCO3)o2)cc1 (stereo not drawn) | – | inconclusive: 6.31 µM [activator, partial curve]
8 | O=C(Nc1ncc(Cc2ccccc2)s1)C1COc2ccccc2O1 (stereo not drawn) | – | active: 10 µM
9 | O=C1c2c(O)cc(O)cc2OC(c2ccc(O)c(O)c2)C1O (stereo not drawn) | – | inconclusive: 35.5 µM [activator, single point]
10 | CCn1cc(C(=O)O)c(=O)c2cc(F)c(N3CCN(C(=O)Nc4ccccc4)CC3)cc21 | – | active: 17.8 µM
11 | COc1ccc2[nH]c(=O)c(CN(C(=O)c3ccncc3)C(C)C)cc2c1 | – | inconclusive: 3.55 µM [activator, partial curve]
12 | CCOC(=O)CSc1nc2cc(C(=O)NCc3ccco3)ccc2c(=O)n1-c1ccc(F)cc1 | – | inconclusive: 12.6 µM [activator, single point]
13 | N#Cc1ccsc1NC(=O)CSc1ncnc2ccccc12 | – | inconclusive: 14.1 µM [activator, partial curve, poor fit]
14 | CCc1[nH]nc2c1C1(C(=O)N(Cc3ccccc3)c3ccccc31)C(C#N)=C(N)O2 (stereo not drawn) | – | inconclusive: 7.08 µM [activator, full curve, poor fit]
15 | O=C(Oc1ccc(N2C(=O)CCC2=O)cc1)c1ccco1 | – | inconclusive: 0.141 µM [activator, full curve]
16 | COc1ccc2nc(/N=C/c3c(C)[nH]n(-c4ccc(C)cc4)c3=O)sc2c1 | – | inconclusive: 8.91 µM [activator, partial curve, poor fit]
17 | O=C(CCCc1ccccn1)c1ccccc1 | – | active: 2.82 µM
18 | CC(C)c1ccc2oc(-c3ccc(NC(=O)c4cccc(Br)c4)cc3)nc2c1 | inactive: -14% | –
